Among the data in publication PMC9911399, “Two distinct binding modes provide the RNA-binding protein RbFox with extraordinary sequence specificity” are binding signal values, retold here.

Numbering of substitutions follows the chain as printed; changes in the protein carry UniProt numbers. This is one part of the list.

The labels stand for the following.
T1: RBFOX1 RRM RbFoxmut (Fox-RRM*) (Homo sapiens, UniProt Q9NWB1 109-208, R118D;E147R;N151S;E152T)
T1 sequence: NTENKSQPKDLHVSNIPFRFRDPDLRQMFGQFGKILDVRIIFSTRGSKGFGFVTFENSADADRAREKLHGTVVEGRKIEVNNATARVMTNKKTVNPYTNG

B1: AAUAUUG (DNA:RNA)
RNA: GGGAGACCGGAAUUCAGAUUGUCCAAUAUUGUUAAAUCCCGUCGUAGCCACCA
DNA 1: CAATCTGAATTCCGGTCTCCC
DNA 2: TGGTGGCTACGACGGGATT
B2: CCCAUCU (DNA:RNA)
RNA: B1 RNA with A25C, A26C, U27C, U30C, G31U
DNA 1: CAATCTGAATTCCGGTCTCCC
DNA 2: TGGTGGCTACGACGGGATT
B3: AUUCCUC (DNA:RNA)
RNA: B1 RNA with A26U, A28C, U29C, G31C
DNA 1: CAATCTGAATTCCGGTCTCCC
DNA 2: TGGTGGCTACGACGGGATT
B4: UAACGAA (DNA:RNA)
RNA: B1 RNA with A25U, U27A, A28C, U29G, U30A, G31A
DNA 1: CAATCTGAATTCCGGTCTCCC
DNA 2: TGGTGGCTACGACGGGATT
B5: AGCUCUG (DNA:RNA)
RNA: B1 RNA with A26G, U27C, A28U, U29C
DNA 1: CAATCTGAATTCCGGTCTCCC
DNA 2: TGGTGGCTACGACGGGATT
B6: AGCCAUC (DNA:RNA)
RNA: B1 RNA with A26G, U27C, A28C, U29A, G31C
DNA 1: CAATCTGAATTCCGGTCTCCC
DNA 2: TGGTGGCTACGACGGGATT
B7: GUAGAUG (DNA:RNA)
RNA: B1 RNA with A25G, A26U, U27A, A28G, U29A
DNA 1: CAATCTGAATTCCGGTCTCCC
DNA 2: TGGTGGCTACGACGGGATT
B8: UCCUAAU (DNA:RNA)
RNA: GGGAGACCGGAAUUCAGAUUGUCCUCCUAAUUUAAAUCCCGUCGUAGCCACCA
DNA 1: CAATCTGAATTCCGGTCTCCC
DNA 2: TGGTGGCTACGACGGGATT
B9: UGUCUAU (DNA:RNA)
RNA: B8 RNA with C26G, C27U, U28C, A29U
DNA 1: CAATCTGAATTCCGGTCTCCC
DNA 2: TGGTGGCTACGACGGGATT
B10: CCAAGUA (DNA:RNA)
RNA: B1 RNA with A25C, A26C, U27A, U29G, G31A
DNA 1: CAATCTGAATTCCGGTCTCCC
DNA 2: TGGTGGCTACGACGGGATT
B11: UCGACCA (DNA:RNA)
RNA: B8 RNA with C27G, U28A, A29C, A30C, U31A
DNA 1: CAATCTGAATTCCGGTCTCCC
DNA 2: TGGTGGCTACGACGGGATT
B12: CCGAUAC (DNA:RNA)
RNA: B1 RNA with A25C, A26C, U27G, U30A, G31C
DNA 1: CAATCTGAATTCCGGTCTCCC
DNA 2: TGGTGGCTACGACGGGATT
B13: CAAUUCA (DNA:RNA)
RNA: B1 RNA with A25C, U27A, A28U, U30C, G31A
DNA 1: CAATCTGAATTCCGGTCTCCC
DNA 2: TGGTGGCTACGACGGGATT
B14: GCAAUGA (DNA:RNA)
RNA: B1 RNA with A25G, A26C, U27A, U30G, G31A
DNA 1: CAATCTGAATTCCGGTCTCCC
DNA 2: TGGTGGCTACGACGGGATT
B15: GUCCCGG (DNA:RNA)
RNA: B1 RNA with A25G, A26U, U27C, A28C, U29C, U30G
DNA 1: CAATCTGAATTCCGGTCTCCC
DNA 2: TGGTGGCTACGACGGGATT
B16: GUGUCUU (DNA:RNA)
RNA: B8 RNA with U25G, C26U, C27G, A29C, A30U
DNA 1: CAATCTGAATTCCGGTCTCCC
DNA 2: TGGTGGCTACGACGGGATT
B17: GAGGCCC (DNA:RNA)
RNA: B1 RNA with A25G, U27G, A28G, U29C, U30C, G31C
DNA 1: CAATCTGAATTCCGGTCTCCC
DNA 2: TGGTGGCTACGACGGGATT
B18: GUUCCAC (DNA:RNA)
RNA: B1 RNA with A25G, A26U, A28C, U29C, U30A, G31C
DNA 1: CAATCTGAATTCCGGTCTCCC
DNA 2: TGGTGGCTACGACGGGATT
B19: CUCUGAC (DNA:RNA)
RNA: B8 RNA with U25C, C26U, A29G, U31C
DNA 1: CAATCTGAATTCCGGTCTCCC
DNA 2: TGGTGGCTACGACGGGATT
B20: GCUCGAC (DNA:RNA)
RNA: B8 RNA with U25G, C27U, U28C, A29G, U31C
DNA 1: CAATCTGAATTCCGGTCTCCC
DNA 2: TGGTGGCTACGACGGGATT
B21: UCGGACC (DNA:RNA)
RNA: B8 RNA with C27G, U28G, A30C, U31C
DNA 1: CAATCTGAATTCCGGTCTCCC
DNA 2: TGGTGGCTACGACGGGATT
B22: ACUUACA (DNA:RNA)
RNA: B8 RNA with U25A, C27U, A30C, U31A
DNA 1: CAATCTGAATTCCGGTCTCCC
DNA 2: TGGTGGCTACGACGGGATT
B23: CUACCCU (DNA:RNA)
RNA: B8 RNA with U25C, C26U, C27A, U28C, A29C, A30C
DNA 1: CAATCTGAATTCCGGTCTCCC
DNA 2: TGGTGGCTACGACGGGATT
B24: CGGUUAC (DNA:RNA)
RNA: B8 RNA with U25C, C26G, C27G, A29U, U31C
DNA 1: CAATCTGAATTCCGGTCTCCC
DNA 2: TGGTGGCTACGACGGGATT
B25: GUAUUGC (DNA:RNA)
RNA: B1 RNA with A25G, A26U, U27A, A28U, U30G, G31C
DNA 1: CAATCTGAATTCCGGTCTCCC
DNA 2: TGGTGGCTACGACGGGATT
B26: GGCAUAG (DNA:RNA)
RNA: B1 RNA with A25G, A26G, U27C, U30A
DNA 1: CAATCTGAATTCCGGTCTCCC
DNA 2: TGGTGGCTACGACGGGATT
B27: GGACGAU (DNA:RNA)
RNA: B8 RNA with U25G, C26G, C27A, U28C, A29G
DNA 1: CAATCTGAATTCCGGTCTCCC
DNA 2: TGGTGGCTACGACGGGATT
B28: CGAGAGG (DNA:RNA)
RNA: B1 RNA with A25C, A26G, U27A, A28G, U29A, U30G
DNA 1: CAATCTGAATTCCGGTCTCCC
DNA 2: TGGTGGCTACGACGGGATT
B29: CAAGUAC (DNA:RNA)
RNA: B1 RNA with A25C, U27A, A28G, U30A, G31C
DNA 1: CAATCTGAATTCCGGTCTCCC
DNA 2: TGGTGGCTACGACGGGATT
B30: GGGCCGA (DNA:RNA)
RNA: GGGAGACCGGAAUUCAGAUUGUCCGGGCCGAUUAAAUCCCGUCGUAGCCACCA
DNA 1: CAATCTGAATTCCGGTCTCCC
DNA 2: TGGTGGCTACGACGGGATT
B31: GGAGACG (DNA:RNA)
RNA: B30 RNA with G27A, C28G, C29A, G30C, A31G
DNA 1: CAATCTGAATTCCGGTCTCCC
DNA 2: TGGTGGCTACGACGGGATT

For this experiment, the target named is T1, RBFOX1 RRM RbFoxmut (Fox-RRM*). Briefly: EMSA; HiTS-Eq, 1 nM pool, 10 min; buffer printed only for the single-RNA assays: 10 mM Tris pH 7.5, 150 mM NaCl, 3.4 mM EDTA, 0.001% NP-40, 30 C. Particulars: tags: His6 N-terminal (pET28a); label: 5' 32P. The method in brief: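 Purified RbFox RRM, wild type or mutant, was incubated for 10 min in 50 µL with 1 nM of a 5′-radiolabelled RNA pool carrying 7 randomized nucleotides, whose flanks were annealed to DNA oligonucleotides, over a series of increasing protein concentrations. Unbound RNA was resolved on 8% native PAGE, cut out, reverse-transcribed, barcoded by PCR and sequenced on an Illumina HiSeq 2500. Relative association constants were derived from changes in read counts for each RNA species versus the control reaction and normalised to the cognate motif.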
On the technique in general: A gel shift assay detects complexes by their altered migration in electrophoresis.
Turning to B1, the binding signal is 0.112 KA relative to UGCAUGU. As for B2, the binding signal was 0.0617 KA relative to UGCAUGU. In the case of B3 it was 0.0696 KA relative to UGCAUGU; in that of B4, 0.0679 KA relative to UGCAUGU. To B5 belongs 0.0949 KA relative to UGCAUGU; to B6, 0.0563 KA relative to UGCAUGU. For the molecule B7, the binding signal was 0.178 KA relative to UGCAUGU. Turning to B8, the binding signal was 0.1 KA relative to UGCAUGU. Turning to B9, the binding signal is 0.112 KA relative to UGCAUGU. Regarding B10, the binding signal is 0.115 KA relative to UGCAUGU. As for B11, the binding signal is 0.0475 KA relative to UGCAUGU.

As for B12, the binding signal was 0.0977 KA relative to UGCAUGU.

Take B13: the binding signal is 0.116 KA relative to UGCAUGU. To B14 belongs 0.0709 KA relative to UGCAUGU. To B15 belongs 0.0859 KA relative to UGCAUGU. In the case of B16, the binding signal is 0.101 KA relative to UGCAUGU. As to B17, the binding signal was 0.0476 KA relative to UGCAUGU. For B18, the binding signal is 0.104 KA relative to UGCAUGU.

For B19, the binding signal was 0.115 KA relative to UGCAUGU. In the case of B20 it was 0.0915 KA relative to UGCAUGU.

For the molecule B21, the binding signal was 0.0555 KA relative to UGCAUGU. For B22, the binding signal is 0.123 KA relative to UGCAUGU. In the case of B23 it was 0.0884 KA relative to UGCAUGU; in that of B24, 0.0846 KA relative to UGCAUGU. In the case of B25 it was 0.194 KA relative to UGCAUGU; in that of B26, 0.104 KA relative to UGCAUGU. In the case of B27 it was 0.0761 KA relative to UGCAUGU; in that of B28, 0.0724 KA relative to UGCAUGU. Take B29: the binding signal is 0.1 KA relative to UGCAUGU. As for B30, the binding signal is 0.154 KA relative to UGCAUGU.

As to B31, the binding signal is 0.0869 KA relative to UGCAUGU.
